Reference: PubChem BioAssay (Tox21)
“And” between values parts separate entries of the source, which are not always exact repeats. Equal entries are not always repeated. This list was built around the results that the source calls inconclusive (neither active nor inactive); the mix of calls is not that of the screen. For some of these results: A potency beside an inconclusive call is a rough fit, not a confirmed value. More than one record can exist for a structure, and the calls need not agree. The source made the active and inactive calls. Calls come from the whole dose curve; as a rule, active = well fitted curve in the direction sought with a large enough effect in the repeat runs; inconclusive = weak or mixed curves; inactive = no such curve, though single readings can be large; an effect the other way counts as inactive or inconclusive.

Assays:
[1] = A CellTox Green Cytotoxicity Assay to monitor cytotoxicity in HEK293 cells - 40 hour (AID 1224871); note: nearly all actives have a fitted effect of over 45% in size; note: potency is the fitted concentration of half-maximal effect
Procedure, shortened: (§1)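 Cells (HEK293, 600/well) and dye reagent are dispensed together. After 5 h at 37 C, 23 nL compound is pinned in. Plates stay at 37 C for 40 h with fluorescence read at 0h, 8h, 16h, 24h, 32h and 40h.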

[2] = qHTS RealTime-Glo MT Cell Viability Assay in HepG2 cells - 8 hour (AID 1224873); note: potency is the fitted concentration of half-maximal effect; nearly all actives have a fitted effect of over 55% in size
Procedure, shortened: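 HepG2 cells mixed with RealTime-Glo MT reagents (NanoLuc plus cell-permeant prosubstrate) were seeded at 600 cells/well, incubated 5 h at 37 C/5% CO2, then pinned with compounds in DMSO; nonlytic luminescence tracked viability during 40 h treatment.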

[3] = A CellTox Green Cytotoxicity Assay to monitor cytotoxicity in HEK293 cells - 24 hour (AID 1224875); note: potency is the fitted concentration of half-maximal effect; nearly all actives have a fitted effect of over 45% in size
Procedure, shortened: as §1

[4] = qHTS RealTime-Glo MT Cell Viability Assay in HEK293 cells - 16 hour (AID 1224872); note: potency is the fitted concentration of half-maximal effect; nearly all actives have a fitted effect of over 50% in size
Procedure, shortened: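 Cells + reagent dispensed (600 cells/well, HEK293) → 5 h at 37 C/5% CO2 → 23 nL compound in DMSO pinned → 40 h at 37 C → luminescence read at 0, 8, 16, 24, 32, 40 h.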

[5] = A CellTox Green Cytotoxicity Assay to monitor cytotoxicity in HepG2 cells - 24 hour (AID 1224878); note: potency is the fitted concentration of half-maximal effect; nearly all actives have a fitted effect of over 45% in size
Procedure, shortened: (§2)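 Cells and non-lytic dye reagent are dispensed together (600 HepG2 cells/well) and incubated 5 h before DMSO compound transfer. Kinetic fluorescence is then recorded in the same wells during 40 h at 37 C.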

[6] = A CellTox Green Cytotoxicity Assay to monitor cytotoxicity in HepG2 cells - 40 hour (AID 1224879); note: potency is the fitted concentration of half-maximal effect; nearly all actives have a fitted effect of over 40% in size
Procedure, shortened: as §2

[7] = A CellTox Green Cytotoxicity Assay to monitor cytotoxicity in HepG2 cells - 16 hour (AID 1224876); note: potency is the fitted concentration of half-maximal effect; nearly all actives have a fitted effect of over 45% in size
Procedure, shortened: as §2

[8] = qHTS RealTime-Glo MT Cell Viability Assay in HEK293 cells - 40 hour (AID 1224874); conditions: RealTime-Glo luminescence; max response: hits give low values; note: nearly all actives have a fitted effect of over 50% in size; note: potency is the fitted concentration of half-maximal effect; for max response: % is set by controls: 0 for no effect and ±100 for the full control effect
Procedure, shortened: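 Real-time viability in HEK293: signal arises when living cells convert a prosubstrate for NanoLuc in the medium, so luminescence tracks viable cell number. Compound (23 nL, DMSO) added 5 h post-seeding; kinetic reads at 0–40 h, 37 C.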

[9] = qHTS RealTime-Glo MT Cell Viability Assay in HepG2 cells - 32 hour (AID 1224877); note: % is set by controls: 0 for no effect and ±100 for the full control effect; nearly all actives have a fitted effect of over 55% in size
Procedure, shortened: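 Real-time, nonlytic viability: 600 HepG2 cells/well mixed with NanoLuc enzyme plus prosubstrate; 5 h settle, compound (DMSO) added by pintool; luminescence monitored over 40 h at 37 C.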
Tags give direction and shape of the fitted curve.

CNCC[C@H](Oc1cccc2ccccc12)c1cccs1
Potency [1]: inconclusive: 26.8 µM [activator, single point] | Potency [2]: inconclusive: 21.3 µM [falling, partial curve] | Potency [3]: inconclusive: 26.8 µM [activator, single point]

CC/C=C\CCOC(=O)c1ccccc1
Potency [1]: inconclusive: 49 µM [activator, single point] | Potency [4]: inconclusive: 61.7 µM [cytotoxic, single point] | Potency [5]: inconclusive: 30.9 µM [activator, partial curve, poor fit] | Potency [6]: inconclusive: 34.7 µM [activator, partial curve, poor fit]

C/C=C1/C(=O)C[C@H]2[C@@H]3CCC4=CC(=O)CC[C@]4(C)[C@H]3CC[C@]12C
Potency [1]: inconclusive: 48.8 µM [activator, single point] | Potency [2]: inconclusive: 48.8 µM [falling, partial curve, poor fit] | Potency [7]: inconclusive: 48.8 µM [activator, partial curve, poor fit] | Potency [5]: inconclusive: 43.5 µM [activator, partial curve]

C=CC(=O)OCCC#N
Potency [1]: inconclusive: 55.3 µM [activator, single point] | Potency [8]: inconclusive: 62 µM [cytotoxic, single point]

CCCCCCCC/C=C\CCCCCCCC(N)=O
Potency [1]: inconclusive: 54.9 µM [activator, single point] | Potency [4]: inconclusive: 48.9 µM [cytotoxic, single point] | Potency [8]: inconclusive: 54.9 µM [cytotoxic, single point] | Potency [3]: inconclusive: 54.9 µM [activator, single point] | Potency [5]: active: 24.5 µM

CCc1ccccc1O
Potency [1]: active: 54.7 µM | Potency [4]: inconclusive: 61.3 µM [cytotoxic, single point] | Potency [8]: inconclusive: 54.7 µM [cytotoxic, single point] | Potency [9]: inactive

O=C(O)CCN(C1(C(=O)NO)CCCC1)S(=O)(=O)c1ccc(Oc2ccc(F)cc2)cc1
Potency [1]: inactive | max response [8]: inactive: 9.57%

Oc1ccc(Oc2ccccc2)cc1
Potency [1]: inconclusive: 46.5 µM [activator, single point] | Potency [4]: active: 14.7 µM | Potency [7]: inconclusive: 36.9 µM [activator, single point]

C[C@@H]1CC[C@H]2C(C)(C)[C@H]3C[C@@]12CC[C@@]3(C)O
Potency [1]: active: 38.8 µM | Potency [4]: inconclusive: 54.9 µM [cytotoxic, single point] | Potency [7]: inconclusive: 54.9 µM [activator, single point]

CN(Cc1cc(Br)cc(Br)c1N)C1CCCCC1
Potency [1]: inconclusive: 26.8 µM [activator, single point] | Potency [4]: inconclusive: 26.8 µM [cytotoxic, single point] | Potency [8]: inconclusive: 26.8 µM [cytotoxic, single point] | Potency [3]: inconclusive: 26.8 µM [activator, single point] | Potency [7]: active: 19 µM | Potency [5]: active: 21.3 µM | Potency [6]: inconclusive: 12 µM [activator, partial curve, poor fit]

CC1(C)CCC[C@]2(C)[C@H]3CCO[C@]3(C)CC[C@@H]12
Potency [1]: inconclusive: 21.9 µM [activator, single point] | max response [8]: inactive: 4.7% | Potency [3]: inconclusive: 21.9 µM [activator, single point]

C#C[C@]1(O)CC[C@H]2[C@@H]3CCc4cc(OC)ccc4[C@H]3CC[C@@]21C
Potency [1]: inconclusive: 54.9 µM [activator, single point] and inconclusive: 26.8 µM [activator, single point] | Potency [4]: inconclusive: 34.7 µM [cytotoxic, partial curve] and inconclusive: 19 µM [cytotoxic, partial curve] | Potency [3]: inconclusive: 54.9 µM [activator, single point] | Potency [7]: inconclusive: 61.6 µM [activator, partial curve, poor fit] | Potency [5]: inconclusive: 54.9 µM [activator, single point] and inconclusive: 21.3 µM [activator, partial curve] | Potency [6]: inconclusive: 54.9 µM [activator, single point] and inconclusive: 26.8 µM [activator, single point]
